# In PubChem BioAssay AID2675 (National Center for Advancing Translational Sciences (NCATS), 2010):
# Among all 280,000 compounds or so, about 100 (0.036%) were called active. The inconclusive results got no clear call from the source; some entries with a clear call stand among them for comparison. Calls follow the shape of the dose curve; as a rule, active = well fitted inhibition curve with a large enough effect in the signal ratio, with a control signal flat (not every such curve was filed as active); inconclusive = small, poorly fitted or top-dose-only effect, or effect the other way, or a change in a side signal; inactive = no such curve, though single readings can be large or run the other way; the % refers to the signal ratio. Potencies beside an inconclusive call are fits to weak or partial responses and may not hold up. A note “side channel” means that the fit belongs to a control or component signal, not to the main read-out.
# Molecular target: Muscleblind-like protein 1 (Homo sapiens) (UniProt Q9NR56)
# Assay: qHTS Assay for Inhibitors of MBNL1-poly(CUG) RNA binding
# Conditions: TR-FRET MBNL1-His/biotin-(CUG)12 binding, 665/545 ratio; series mostly up to 57.5 µM
# Outline: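 TR-FRET readout: Ex 340 nm, 665/545 nm emission ratio, normalized to buffer-only (basal) and MBNL1-(CUG)12 controls. Complex of MBNL1-His with Biotin-(CUG)12, compounds 92 nM–58 uM, incubated 60 min at room temperature.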
# Potency is read from the fitted curve at half-maximal effect; tags tell the direction and shape of the fitted curve or compound fluorescence and quenching.
# Sequence of UniProt Q9NR56 (Q9NR56 whole entry, looked up): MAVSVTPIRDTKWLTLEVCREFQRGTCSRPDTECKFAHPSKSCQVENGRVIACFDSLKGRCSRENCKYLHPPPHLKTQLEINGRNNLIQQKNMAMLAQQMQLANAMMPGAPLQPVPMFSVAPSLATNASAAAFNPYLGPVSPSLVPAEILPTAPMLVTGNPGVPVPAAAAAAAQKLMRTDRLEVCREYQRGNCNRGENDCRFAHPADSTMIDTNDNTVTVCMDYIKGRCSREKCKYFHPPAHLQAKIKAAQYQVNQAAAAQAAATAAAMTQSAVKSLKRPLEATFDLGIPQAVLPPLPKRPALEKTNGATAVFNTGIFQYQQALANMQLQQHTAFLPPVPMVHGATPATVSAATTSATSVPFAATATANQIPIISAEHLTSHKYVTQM
row,Compound,Potency
1,CCCCCC(=O)NC(NC(=S)N1CCOCC1)C(Cl)(Cl)Cl (centres undefined),inactive
2,CC(C)Cn1c(-c2ccc(Br)o2)n[nH]c1=S,"inconclusive: 79.4 µM [inhibitor, single point]"
3,CCC(C)N1CC23C=CC(O2)C(C(=O)OC)C3C1=O (centres undefined),"inconclusive: 39.8 µM [quencher, side channel, single point]"
4,Nc1nc2c(c(=O)[nH]1)C(c1cccc3ccccc13)C1=C(N2)c2ccccc2C1=O (centres undefined),"inconclusive: 4.47 µM [quencher, side channel, full curve]"
5,CN(C)S(=O)(=O)c1cccc(-c2nn(-c3ccccc3)cc2/C=C(\C#N)c2nc3ccccc3[nH]2)c1,"inconclusive: 0.708 µM [fluorescent, side channel, single point]"
6,O=C(/C=C/c1ccccc1[N+](=O)[O-])NCc1ccncc1,"inconclusive: 8.91 µM [quencher, side channel, partial curve]"
7,Cc1cc(C)n(C(=O)c2c([N+](=O)[O-])c(C)nn2C)n1,"inconclusive: 3.98 µM [quencher, side channel, partial curve]"
8,COc1ccc(OC)c(C2=NS(=O)(=O)N(C)C(C(=O)NCc3ccco3)=C2)c1,"inconclusive: 15.8 µM [quencher, side channel, partial curve]"
9,COC(=O)c1ccc(NC(=O)CCNS(=O)(=O)c2cccc3nonc23)cc1,"inconclusive: 25.1 µM [quencher, side channel, partial curve]"
10,CC(=O)Nc1cccc(Oc2ccc3c(c2)C(=O)NC3=O)c1,"inconclusive: 28.2 µM [quencher, side channel, single point]"
11,C/C=C/C=C/C(=O)OC(C)C(=O)Nc1cc([N+](=O)[O-])ccc1OC (centres undefined),"inconclusive: 12.6 µM [quencher, side channel, partial curve]"
12,Cc1nnc(-c2ccc(N3CCCCCC3)c([N+](=O)[O-])c2)o1,"inconclusive: 11.2 µM [quencher, side channel, partial curve]"
13,COc1c(C(=O)Nc2ccc(Cc3ccncc3)cc2)ccc2ccccc12,inactive
14,COC(=O)c1sccc1NC(=O)Nc1ccc(C)cc1,inactive
15,O=C(Nc1ccc2nc(-c3ccco3)c(-c3ccco3)nc2c1)N1CCCCCC1,"inconclusive: 12.6 µM [quencher, side channel, partial curve]"
16,CC(C)CNC(=O)c1cccc(NC(=O)c2ccc3c(c2)C(=O)N(C)C3=O)c1,"inconclusive: 7.08 µM [quencher, side channel, full curve]"
17,Nc1ccc(Br)c2c1C(=O)c1ccccc1C2=O,"inconclusive: 10 µM [quencher, side channel, partial curve]"
18,Cc1c(N2C(=O)/C(=C\c3ccc(N(C)C)cc3)N(C)C2=S)c(=O)n(-c2ccccc2)n1C,"inconclusive: 3.16 µM [quencher, side channel, partial curve]"
19,COc1cccc(-c2ccc(C#N)c(SCC(=O)NCCc3cccc(Cl)c3)n2)c1,"inconclusive: 25.1 µM [fluorescent, side channel, single point]"
20,Fc1ccccc1CNc1ncnc2sccc12,inactive

row,Compound,Potency
1,COC(=O)c1ccccc1Oc1ccc(NC(=O)CCCl)cc1,"inconclusive: 79.4 µM [inhibitor, single point]"
2,O=C(NCc1cccnc1)C(=O)N/N=C/c1ccccc1[N+](=O)[O-],"inconclusive: 28.2 µM [quencher, side channel, partial curve]"
3,S=c1[nH]cnc2scc(-c3ccc(Br)cc3)c12,inactive
4,Cc1cc2c(=O)oc(-c3ccc(F)cc3)nc2s1,"inconclusive: 20 µM [inhibitor, single point]"
5,N#C/C(C(=O)N1CCCC1)=C1/N=C(N)c2ccccc21,"inconclusive: 14.1 µM [quencher, side channel, partial curve]"
6,CCn1cc(C(=O)NCCN(C)CCc2ccccc2)c(=O)c2cc(S(=O)(=O)N(C)C)ccc21,"inconclusive: 39.8 µM [quencher, side channel, single point]"
7,NC(=O)N/N=C/C=C/c1ccccc1,"inconclusive: 17.8 µM [quencher, side channel, partial curve]"
8,O=C(CCNc1ccc(Cc2ccncc2)cc1)c1cccc([N+](=O)[O-])c1,"inconclusive: 22.4 µM [quencher, side channel, single point]"
9,CCOc1cc(CN2CCN(c3ccc(C(C)=O)cc3)CC2)ccc1OC,inactive
10,COc1ccc(/C(C)=C2/SC(=S)N(CCC(=O)O)C2=O)cc1,"inconclusive: 31.6 µM [quencher, side channel, single point]"
11,Cn1c(SCC(=O)OC2CCCCC2)nnc1-c1ccco1,"inconclusive: 39.8 µM [inhibitor, single point]"
12,O=C(C1CCC(=O)N(C2CCCC2)C1)N1CCN(c2ccccc2Cl)CC1 (centres undefined),inactive
13,Cc1cc(C(=O)COc2ccc([N+](=O)[O-])cc2)c(C)n1C1CC1,"inconclusive: 4.47 µM [quencher, side channel, full curve, poor fit]"
14,COc1ccc(/C=C2\N=C(C)N(c3ccc(C(=O)O)cc3)C2=O)cc1OC,"inconclusive: 12.6 µM [quencher, side channel, partial curve]"
15,CC(C)OC(=O)CN1C(=O)C(=O)c2ccccc21,"inconclusive: 7.08 µM [quencher, partial curve]"
16,CCN1CCN(c2sc(S(C)(=O)=O)nc2S(=O)(=O)c2ccc(Cl)cc2)CC1,inactive
17,COc1ccc(-c2[nH]ncc2CNCCCSC)cc1F,"inconclusive: 39.8 µM [fluorescent, side channel, single point]"
18,Cc1cc(C(=O)N=Nc2c(O)n(C(C)C)c3ccccc23)n[nH]1,"inconclusive: 12.6 µM [quencher, side channel, partial curve]"
19,O=c1c2c(-c3ccc([N+](=O)[O-])cc3)ccnc2[nH]n1-c1ccccc1,"inconclusive: 2.82 µM [quencher, side channel, full curve, poor fit]"
20,CC(=O)Nc1cccc(Oc2nc(C)cc(C)c2C#N)c1,"inconclusive: 0.708 µM [quencher, side channel, full curve, poor fit]"

row,Compound,Potency
1,CN(Cc1c(F)cccc1Cl)C(=O)c1cnc2ccccc2n1,"inconclusive: 20 µM [quencher, side channel, partial curve]"
2,Fc1ccccc1NC(=S)NNc1ncc(C(F)(F)F)cc1Cl,inactive
3,O=C1c2cccc3c([N+](=O)[O-])ccc(c23)C(=O)N1c1ccc(Cl)cn1,"inconclusive: 3.55 µM [quencher, side channel, full curve]"
4,CCOc1ccc(CNC(=S)Nc2ccccc2)cc1Cl,inactive
5,Cc1c(Nc2cc(Cl)c3nonc3c2[N+](=O)[O-])c(=O)n(-c2ccccc2)n1C,"inconclusive: 8.91 µM [quencher, side channel, partial curve]"
6,COC(=O)CNC(=O)c1ccc2c(c1)S(=O)(=O)c1ccccc1C2=O,"inconclusive: 8.91 µM [quencher, partial curve]"
7,NNC(=O)c1ccc([N+](=O)[O-])c(CS(=O)(=O)c2ccc(Cl)cc2)c1,"inconclusive: 17.8 µM [quencher, side channel, partial curve]"
8,CCN(CC)C(=O)COc1ccc2c(-c3ccccc3)cc(=O)oc2c1,"inconclusive: 28.2 µM [quencher, side channel, partial curve]"
9,N#C/C(=C\c1ccc(-c2ccc([N+](=O)[O-])cc2)o1)C(=O)Nc1nc(-c2cccs2)cs1,"inconclusive: 2.24 µM [quencher, side channel, partial curve]"
10,c1ccc(-c2cnn3nnnc3n2)cc1,"inconclusive: 4.47 µM [quencher, side channel, partial curve]"
11,CCCCCc1nc(-c2nonc2N)no1,inactive
12,Cn1cnc([N+](=O)[O-])c1C(=O)Nc1cccc([N+](=O)[O-])c1,"inconclusive: 14.1 µM [quencher, partial curve]"
13,Cc1cc([N+](=O)[O-])nn1CC(=O)N(C)Cc1ccccc1,"inconclusive: 20 µM [quencher, side channel, partial curve]"
14,CN(C(=O)CN1C(=O)S/C(=C\c2ccc(F)cc2)C1=O)C1CCS(=O)(=O)C1 (centres undefined),"inconclusive: 17.8 µM [quencher, side channel, partial curve]"
15,C=CCN(c1ccccc1)S(=O)(=O)c1cccc(C(=O)Nc2nnc(SCC)s2)c1,"inconclusive: 3.98 µM [quencher, side channel, single point]"
16,O=C(Nc1ccccc1-c1ccccc1)c1ccccc1[N+](=O)[O-],"inconclusive: 31.6 µM [quencher, side channel, single point]"
17,O=[N+]([O-])c1nn(-c2ccc(Cl)cc2)n(O)c1=NCc1ccncc1,"inconclusive: 14.1 µM [quencher, side channel, partial curve]"
18,O=C(OC1CCCCC1)c1cc2ccccc2oc1=O,"inconclusive: 28.2 µM [quencher, side channel, partial curve]"
19,Cc1nn(Cc2ccccc2)c2c1C(c1cccnc1)C(C#N)=C(N)O2 (centres undefined),"inconclusive: 35.5 µM [quencher, side channel, single point]"
